Experimental findings from patent US12459876B2, “One-step kit-based synthesis of 2-deoxy-2-[18F]fluoro-D-sorbitol” (The Johns Hopkins University, priority 2020, dated 2025) are described below.

In this data set the test system is K. pneumoniae. Particulars: hamster, in vivo; infected hamsters; 120 minutes post-tracer injection.

Consider `OC[C@@H](O)[C@@H](O)[C@H](O)[C@@H]([18F])CO` [^18F-FDS, 2-deoxy-2-[^18F]fluoro-D-sorbitol], for which the “PET signal in other organs (biodistribution)” value is “signal also can be seen in the kidneys, gallbladder, and intestines”.
